US20240252650A1, “LIPID COMPOUNDS AND LIPID NANOPARTICLE COMPOSITIONS” (SUZHOU ABOGEN BIOSCIENCES CO., LTD., priority 2021, published 2024)
For some of these results: The name of at least one read-out is uncertain. Some entries repeat one wording, which the source may state once for all of them. For some of these results: At least one compound was matched to its structure with a doubt left.

What was measured:
[1] = tested on: female ICR mice; test: Animal study: LNPs encapsulating hEPO mRNA, tail vein injection, serum hEPO ELISA, expression over MC3; assay type: in vivo; details: hEPO mRNA LNP, 0.5 mg/kg tail vein injection, serum ELISA (e.g. 6 hours), relative to DLin-MC3-DMA LNP at same dose
[2] = Encapsulation efficiency of lipid nanoparticles (Quant-it Ribogreen RNA quantification assay); assay type: physicochemical; details: LNP encapsulating hEPO mRNA; table of Example 16
Protocol: (§1) Briefly, a cationic lipid provided herein, DSPC, cholesterol, and PEG-lipid were solubilized in ethanol at a molar ratio of 50:10:38.5:1.5, and mRNA were diluted in 10 to 50 mM citrate buffer, pH=4. The LNPs were prepared at a total lipid to mRNA weight ratio of approximately 10:1 to 30:1 by mixing the ethanolic lipid solution with the aqueous mRNA solution at a volume ratio of 1:3 using a microfluidic apparatus, total flow rate ranging from 9-30 mL/min. Ethanol were thereby removed and replaced by DPBS using dialysis. Finally, the lipid nanoparticles were filtered through a 0.2 μm sterile filter.
(§2) Lipid nanoparticle size were determined by dynamic light scattering using a Malvern Zetasizer Nano ZS (Malvern UK) using a 173° backscatter detection mode. The encapsulation efficiency of lipid nanoparticles were determined using a Quant-it Ribogreen RNA quantification assay kit (Thermo Fisher Scientific, UK) according to the manufacturer's instructions.

[3] = Lipid nanoparticle size and polydispersity by dynamic light scattering (Malvern Zetasizer Nano ZS); assay type: physicochemical; details: LNP encapsulating hEPO mRNA; table of Example 16
Protocol: as §1, §2

SMILES: CCCCC/C=C\C/C=C\CCCCCCCC(=O)OCC(COC(=O)CCCC(COC(=O)CCCCCCC)COC(=O)CCCCCCC)COC(=O)CCN(CCO)C1CCC1 (stereo not shown) [Compound 1]
- Expression over MC3 [1]: C (≥0.1 and <1)

SMILES: CCCCC/C=C\C/C=C\CCCCCCCC(=O)OCC(COC(=O)CCOC(COC(=O)CCCCCCC)COC(=O)CCCCCCC)COC(=O)OCCCN(CC)CC (stereo not shown) [Compound 3]
- Expression over MC3 [1]: C (≥0.1 and <1)

SMILES: CCCCC/C=C\C/C=C\CCCCCCCC(=O)OCC(COC(=O)CCCCN(CCO)C1CCC1)COC(=O)CCCC(COC(=O)CCCCCCC)COC(=O)CCCCCCC (stereo not shown) [Compound 4]
- Expression over MC3 [1]: B (≥1 and <2)

SMILES: CCCCC/C=C\C/C=C\CCCCCCCC(=O)OCC(COC(=O)CCCC(COC(=O)CCCCCCC)COC(=O)CCCCCCC)COC(=O)OCCN(CCO)C1CCCCC1 (stereo not shown) [Compound 8]
- Expression over MC3 [1]: D (<0.1)

SMILES: CCCCC/C=C\C/C=C\CCCCCCCC(=O)OCC(COC(=O)CCCC(COC(=O)CCCCCCC)COC(=O)CCCCCCC)COC(=O)OCCN(CCO)C1CCC1 (stereo not shown) [Compound 12]
- Expression over MC3 [1]: D (<0.1)

SMILES: CCCCCCCCCCCC(=O)OCC(COC(=O)CCCC(COC(=O)CCCCCCC)COC(=O)CCCCCCC)COC(=O)CCN(CCO)C1CCC1 (stereo not shown) [Compound 15]
- Expression over MC3 [1]: C (≥0.1 and <1)

SMILES: CCCCCCCCCCCCC(=O)OCC(COC(=O)CCCCN(CCO)C1CCC1)COC(=O)CCCC(COC(=O)CCCCCCC)COC(=O)CCCCCCC (stereo not shown) [Compound 18]
- Expression over MC3 [1]: B (≥1 and <2)

SMILES: CCCCC/C=C\C/C=C\CCCCCCCC(=O)OCC(COC(=O)CCCC(COC(=O)CCCCCCC)COC(=O)CCCCCCC)COC(=O)OCCN(CCO)C1CCCC1 (stereo not shown) [Compound 33]
- Expression over MC3 [1]: D (<0.1)

SMILES: CCCCC/C=C\C/C=C\CCCCCCCC(=O)OCC(COC(=O)CCCC(COC(=O)CCCCCCC)COC(=O)CCCCCCC)COC(=O)OCCCN(CCO)C1CCC1 (stereo not shown) [Compound 34]
- Expression over MC3 [1]: B (≥1 and <2)

SMILES: CCCCCCCCCCCCCCCC(=O)OCC(COC(=O)CCCCN(CCO)C1CCC1)COC(=O)CCCC(COC(=O)CCCCCCC)COC(=O)CCCCCCC (stereo not shown) [Compound 41]
- Encapsulation Efficiency [2]: 89.36%
- polydispersity [3]: 0.109
- size (nm) [3]: 105.8 nm
- Expression over MC3 [1]: C (≥0.1 and <1)

SMILES: CCCCC/C=C\C/C=C\CCCCCCCC(=O)OCC(COC(=O)CCCCCCN(CCO)C1CCC1)COC(=O)CCCC(COC(=O)CCCCCCC)COC(=O)CCCCCCC (stereo not shown) [Compound 42]
- Expression over MC3 [1]: B (≥1 and <2)

SMILES: CCCCC/C=C\C/C=C\CCCCCCCC(=O)OCC(COC(=O)CCCCCCCN(CCO)C1CCC1)COC(=O)CCCC(COC(=O)CCCCCCC)COC(=O)CCCCCCC (stereo not shown) [Compound 43]
- Expression over MC3 [1]: B (≥1 and <2)

SMILES: CCCCCCCC(=O)OCC(CCCC(=O)OCC(COC(=O)CCCCCCC)COC(=O)CCCCCCCN(CCO)C1CCC1)COC(=O)CCCCCCC (stereo not shown) [Compound 44]
- Encapsulation Efficiency [2]: 88.41%
- polydispersity [3]: 0.094
- size (nm) [3]: 144.7 nm
- Expression over MC3 [1]: C (≥0.1 and <1)

SMILES: CCCCCCCCC(=O)OCC(COC(=O)CCCCCN(CCO)C1CCC1)COC(=O)CCCC(COC(=O)CCCCCCC)COC(=O)CCCCCCC (stereo not shown) [Compound 45]
- Expression over MC3 [1]: C (≥0.1 and <1)

SMILES: CCCCCCCCC(=O)OCC(COC(=O)CCCCCCCN(CCO)C1CCC1)COC(=O)CCCC(COC(=O)CCCCCCC)COC(=O)CCCCCCC (stereo not shown) [Compound 46]
- Expression over MC3 [1]: C (≥0.1 and <1)

SMILES: CCCCCCCCCC(=O)OCC(COC(=O)CCCCN(CCO)C1CCC1)COC(=O)CCCC(COC(=O)CCCCCCC)COC(=O)CCCCCCC (stereo not shown) [Compound 47]
- Encapsulation Efficiency [2]: 91.43%
- polydispersity [3]: 0.054
- size (nm) [3]: 125.4 nm
- Expression over MC3 [1]: C (≥0.1 and <1)

SMILES: CCCCCCCCCCC(=O)OCC(COC(=O)CCCCN(CCO)C1CCC1)COC(=O)CCCC(COC(=O)CCCCCCC)COC(=O)CCCCCCC (stereo not shown) [Compound 48]
- Expression over MC3 [1]: C (≥0.1 and <1)

SMILES: CCCCCCCCCCC(=O)OCC(COC(=O)CCCCCN(CCO)C1CCC1)COC(=O)CCCC(COC(=O)CCCCCCC)COC(=O)CCCCCCC (stereo not shown) [Compound 49]
- Expression over MC3 [1]: C (≥0.1 and <1)

SMILES: CCCCCCCCCCC(=O)OCC(COC(=O)CCCCCCN(CCO)C1CCC1)COC(=O)CCCC(COC(=O)CCCCCCC)COC(=O)CCCCCCC (stereo not shown) [Compound 50]
- Expression over MC3 [1]: C (≥0.1 and <1)

SMILES: CCCCCCCCCCCC(=O)OCC(COC(=O)CCCCCN(CCO)C1CCC1)COC(=O)CCCC(COC(=O)CCCCCCC)COC(=O)CCCCCCC (stereo not shown) [Compound 51]
- Encapsulation Efficiency [2]: 89.71%
- polydispersity [3]: 0.099
- size (nm) [3]: 108.4 nm
- Expression over MC3 [1]: C (≥0.1 and <1)

SMILES: CCCCCCCCCCCC(=O)OCC(COC(=O)CCCCCCCN(CCO)C1CCC1)COC(=O)CCCC(COC(=O)CCCCCCC)COC(=O)CCCCCCC (stereo not shown) [Compound 52]
- Encapsulation Efficiency [2]: 93.46%
- polydispersity [3]: 0.062
- size (nm) [3]: 110.2 nm
- Expression over MC3 [1]: C (≥0.1 and <1)

SMILES: CCCCCCCCC(=O)OCC(COC(=O)CCCCCCN(CCO)C1CCC1)COC(=O)CCCC(COC(=O)CCCCCCC)COC(=O)CCCCCCC (stereo not shown) [Compound 57]
- Expression over MC3 [1]: C (≥0.1 and <1)

SMILES: CCCCCCCCCC(=O)OCC(COC(=O)CCCCCN(CCO)C1CCC1)COC(=O)CCCC(COC(=O)CCCCCCC)COC(=O)CCCCCCC (stereo not shown) [Compound 58]
- Expression over MC3 [1]: C (≥0.1 and <1)

SMILES: CCCCCCCCCCCCCCCCCC(=O)OCC(COC(=O)CCCCCN(CCO)C1CCC1)COC(=O)CCCC(COC(=O)CCCCC)COC(=O)CCCCCCC (stereo not shown) [Compound 61]
- Encapsulation Efficiency [2]: 90.13%
- polydispersity [3]: 0.126
- size (nm) [3]: 89.5 nm
- Expression over MC3 [1]: C (≥0.1 and <1)

SMILES: CCCCCCCCCCCCC(=O)OCC(COC(=O)CCCCCN(CCO)C1CCC1)COC(=O)CCCC(COC(=O)CCCCCCC)COC(=O)CCCCCCC (stereo not shown) [Compound 63]
- Encapsulation Efficiency [2]: 86.21%
- polydispersity [3]: 0.13
- size (nm) [3]: 103.1 nm
- Expression over MC3 [1]: C (≥0.1 and <1)

SMILES: CCCCCCCCCCCCC(=O)OCC(COC(=O)CCCCCCN(CCO)C1CCC1)COC(=O)CCCC(COC(=O)CCCCCCC)COC(=O)CCCCCCC (stereo not shown) [Compound 64]
- Expression over MC3 [1]: C (≥0.1 and <1)

SMILES: CCCCCCCCCCCCCCCCCC(=O)OCC(COC(=O)CCCC(COC(=O)CCCCCCC)COC(=O)CCCCCCC)COC(=O)OCCCN(CCO)C1CCCCC1 (stereo not shown) [Compound 65]
- Encapsulation Efficiency [2]: 93.97%
- polydispersity [3]: 0.039
- size (nm) [3]: 85.11 nm
- Expression over MC3 [1]: C (≥0.1 and <1)

SMILES: CCCCCCCCC(=O)OCC(COC(=O)CCCC(COC(=O)CCCCCCC)COC(=O)CCCCCCC)COC(=O)OCCCN(CCO)C1CCC1 (stereo not shown) [Compound 67]
- Encapsulation Efficiency [2]: 88.12%
- polydispersity [3]: 0.068
- size (nm) [3]: 162.2 nm
- Expression over MC3 [1]: C (≥0.1 and <1)

SMILES: CCCCCCCCCCCCCCCCCC(=O)OCC(COC(=O)CCCC(COC(=O)CCCCCCC)COC(=O)CCCCCCC)COC(=O)CCN(CCC)CCO (stereo not shown) [Compound 71]
- Encapsulation Efficiency [2]: 90.84%
- polydispersity [3]: 0.01
- size (nm) [3]: 89.55 nm
- Expression over MC3 [1]: C (≥0.1 and <1)

SMILES: CCCCCCCCCCCCCCCCCC(=O)OCC(COC(=O)CCCCN(CCO)C1CCC1)COC(=O)CCCC(COC(=O)CCCCCCC)COC(=O)CCCCCCC (stereo not shown) [Compound 72]
- Encapsulation Efficiency [2]: 87.26%
- polydispersity [3]: 0.099
- size (nm) [3]: 81.55 nm
- Expression over MC3 [1]: C (≥0.1 and <1)

SMILES: CCCCCCCCCCCCCCCCCC(=O)OCC(COC(=O)CCCCN(CCO)C1CCCCCC1)COC(=O)CCCC(COC(=O)CCCCCCC)COC(=O)CCCCCCC (stereo not shown) [Compound 75]
- Encapsulation Efficiency [2]: 90.82%
- polydispersity [3]: 0.044
- size (nm) [3]: 86.37 nm
- Expression over MC3 [1]: A (≥2)

SMILES: C=CCN(CCO)CCCCC(=O)OCC(COC(=O)CCCCCCCCCCCCCCCCC)COC(=O)CCCC(COC(=O)CCCCCCC)COC(=O)CCCCCCC (stereo not shown) [Compound 84]
- Expression over MC3 [1]: C (≥0.1 and <1)

SMILES: CCCCC/C=C\C/C=C\CCCCCCCC(=O)OCC(COC(=O)CCCC(COC(=O)CCCCCCC)COC(=O)CCCCCCC)COC(=O)OCCCN(CCC)CCO (stereo not shown) [Compound 87]
- Expression over MC3 [1]: C (≥0.1 and <1)

SMILES: CCCCCCCC(=O)OCC(CCCC(=O)OCC(COC(=O)CCCC(COC(=O)CCCCCCC)COC(=O)CCCCCCC)COC(=O)OCCN(C)CCO)COC(=O)CCCCCCC [Compound 91]
- Expression over MC3 [1]: C (≥0.1 and <1)

SMILES: CCCCCCCCCCCCCCCCCC(=O)OCC(COC(=O)CCCCN(CCC)CCO)COC(=O)CCC(=O)OCC(COC(=O)CCCCCCC)COC(=O)CCCCCCC (stereo not shown) [Compound 98]
- Expression over MC3 [1]: C (≥0.1 and <1)

SMILES: CCCCCCCCC(CCCCCCCC)COC(=O)CCOCC(COCCC(=O)OCC(CCCCCCCC)CCCCCCCC)COC(=O)CCCCN(CCO)C1CCC1 [Compound 100]
- Expression over MC3 [1]: A (≥2)

SMILES: CCCCCCCCOC(=O)CCCCCCCC(=O)OCC(COC(=O)CCCCN(CCO)C1CCCCC1)COC(=O)CCCC(COC(=O)CCCCCCC)COC(=O)CCCCCCC (stereo not shown) [Compound 104]
- Expression over MC3 [1]: C (≥0.1 and <1)

SMILES: CCCCC/C=C\C/C=C\CCCCCCCC(=O)OCC(COC(=O)CCCC(COC(=O)CCCCCCC)COC(=O)CCCCCCC)COC(=O)OCCCN(CCO)CCCC (stereo not shown) [Compound 105]
- Expression over MC3 [1]: C (≥0.1 and <1)

SMILES: CCCCC/C=C\C/C=C\CCCCCCCC(=O)OCC(COC(=O)CCCC(COC(=O)CCCCCCC)COC(=O)CCCCCCC)COC(=O)OCCCN(CCO)C1CCCCC1 (stereo not shown) [Compound 106]
- Expression over MC3 [1]: C (≥0.1 and <1)

SMILES: CCCCC/C=C\C/C=C\CCCCCCCC(=O)OCC(COC(=O)CCCC(COC(=O)CCCCCCC)COC(=O)CCCCCCC)OC(=O)CCCCN(CCO)C1CCCCC1 (stereo not shown) [Compound 107]
- Expression over MC3 [1]: C (≥0.1 and <1)
